Assay results: article PMC6919601, “Identification of Plasmodium dipeptidyl aminopeptidase allosteric inhibitors by high throughput screening” (PLoS ONE, 2019)
The campaign covered roughly 110,000 compounds. About 230 (0.21%) showed an effect of 50% or more. The list shows a part of the results.

Molecular target: DPAP1 (Plasmodium falciparum, UniProt Q8IIJ9)
Experiment: primary screen, percent inhibition; read by cleavage of a fluorogenic dipeptide substrate; higher = more effect of the substance
Design: species or system P. falciparum D10 trophozoite lysates; single well
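Also: 30 min substrate incubation versus DMSO and 10 µM JCP410 controls.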

Sequence of DPAP1 (Q8IIJ9 whole entry, looked up): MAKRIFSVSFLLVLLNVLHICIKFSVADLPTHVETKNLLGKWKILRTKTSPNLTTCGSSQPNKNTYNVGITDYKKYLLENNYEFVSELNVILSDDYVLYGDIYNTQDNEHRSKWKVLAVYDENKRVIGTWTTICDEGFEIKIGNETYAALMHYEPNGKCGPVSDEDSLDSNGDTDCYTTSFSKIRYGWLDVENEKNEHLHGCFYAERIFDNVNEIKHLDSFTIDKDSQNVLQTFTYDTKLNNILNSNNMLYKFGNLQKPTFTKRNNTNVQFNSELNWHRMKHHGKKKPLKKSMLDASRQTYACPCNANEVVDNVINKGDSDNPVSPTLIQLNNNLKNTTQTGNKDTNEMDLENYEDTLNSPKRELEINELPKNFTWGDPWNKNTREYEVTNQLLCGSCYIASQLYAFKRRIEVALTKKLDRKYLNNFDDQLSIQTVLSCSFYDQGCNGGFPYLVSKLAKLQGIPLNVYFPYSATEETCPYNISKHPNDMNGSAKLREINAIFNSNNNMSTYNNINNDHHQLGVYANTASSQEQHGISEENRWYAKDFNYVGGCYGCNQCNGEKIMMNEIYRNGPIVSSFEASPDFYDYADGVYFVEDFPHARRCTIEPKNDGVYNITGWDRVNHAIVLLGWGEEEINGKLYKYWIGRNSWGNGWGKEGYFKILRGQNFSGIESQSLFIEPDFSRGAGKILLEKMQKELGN

Compound | % Inhibition @ 10 uM
COc1ccccc1/C=C1N=C(/C=C/c2ccc(C)cc2)OC\1=O | 6.56%
COc1cc(C(=O)O/N=C(\c2ccccc2)c2ccncc2)cc(OC)c1OC | 1.52%
COc1ccc2[nH]c3c(=O)n(CC(=O)N4CCN(Cc5ccccc5)CC4)c(=S)[nH]c3c2c1 | -0.495%
CC(=O)Nc1ccc(C(=O)Nc2cccc(Cl)c2C)cc1 | 3.16%
COc1ccc(CC(=O)Nc2ccccc2C(=O)Nc2ccccc2)cc1 | 5.42%
CC(C)C[C@H](NC(=O)c1cccc(-c2ccc(S(=O)(=O)NCc3ccccc3)s2)c1)C(=O)NCC#N | -3.48%
COc1ccc(C2(C(=O)NCCCN(C)C)CCOCC2)cc1 | -1.41%
CC1CCCC(NC(=O)c2cc(O)nc3ccc(S(=O)(=O)N4CCCCC4C)cc23)C1C (stereo not shown) | -3.12%
Nc1ccc(C(=O)N2CCN(c3cccc(Cl)c3Cl)CC2)c(C(=O)O)c1 | -0.318%
CN(C)c1ccc(NC(=O)c2cccs2)cc1 | 2.01%
CC(=O)C1=C(C)N=c2s/c(=C/c3ccc4c(c3)OCO4)c(=O)n2C1c1ccc(N(C)C)cc1 (stereo not shown) | -12.1%
CCOc1ccc(Sc2cc(C(=O)NCc3cccnc3)c3ccccc3n2)cc1 | -5.67%
CCN(Cc1ccccc1)C(=O)c1ccccc1Br | -4.3%
CC(=O)c1cccc(NC=C2C(=O)N(C)C(=O)N(C)C2=O)c1 | 0.687%
CC(C)(C)c1ccc(C(=O)NCCC(=O)NCc2ccco2)cc1 | 1.17%
CCOc1ccc(N(CC(=O)Nc2ccccc2F)S(C)(=O)=O)cc1 | -7.34%
O=C(O)c1ccc(Nc2nc3ccccc3nc2NS(=O)(=O)c2ccccc2)cc1 | 3.32%
CS(=O)(=O)N(CCc1ccccc1)CC(=O)N1CCN(c2ccc(F)cc2)CC1 | -3.33%
Clc1ccc(N2N=CCC2c2ccccc2)cc1 (stereo not shown) | 4.22%
c1ccc(Cn2nc3ccccc3n2)cc1 | -2.62%
Cc1cccc(NC(=O)c2ccc([N+](=O)[O-])cc2)c1 | 1.08%
CCOC(=O)c1c(NC(=O)c2ccc(OC)cc2)sc2c1CCC2 | 23.6%
CN1CCN(CC(O)Cn2c3ccccc3c3ccccc32)CC1 (stereo not shown) | -4.44%
CCN(CC)S(=O)(=O)c1ccc(NC(=O)C2CC2)cc1 | -4.63%
CCOC(=O)C1CCN(Cc2cccc(C(F)(F)F)c2)CC1 | 3.16%

Compound | % Inhibition @ 10 uM
CCCCC(=O)NCc1ccc(OC)cc1 | 0.13%
CC(CN1CCN(CC(c2ccc(F)cc2)N2CCN(C)CC2)CC1)C(=O)c1ccc(O)cc1 (stereo not shown) | -4.54%
N#C/C(=C\c1ccccc1Cl)c1nc(-c2ccc([N+](=O)[O-])cc2)cs1 | -2%
COc1cc(NS(=O)(=O)c2ccc(NC(=O)c3cc(Cl)sc3Cl)cc2)ncn1 | -0.68%
O=C(NCc1cccnc1)C1CCN(C(=O)c2cnn(-c3ccccc3)c2-n2cccc2)CC1 | 3.4%
O=C(O)c1ccc(-c2nnn(Cc3cccc(C(F)(F)F)c3)n2)cc1 | 1.74%
CNC(C)c1ccc(C2CCCC2)cc1 (stereo not shown) | 2.38%
CCOC(=O)c1sc2ncn(CC(=O)NCc3ccccc3)c(=O)c2c1C | -4.23%
O=C1C(Cl)=C(NCc2ccccc2)C(=O)N1c1ccccc1 | -0.99%
CC(C)(C)c1ccc(C(=O)Nc2nc[nH]n2)cc1 | 3.46%
CCCCN1CCc2c([nH]c3ccccc23)C1=O | -5.46%
Cc1cccc(NC(=O)C(Cc2ccccc2)N2Cc3ccccc3C2=O)n1 (stereo not shown) | 0.822%
O=C(N/C(=C\c1ccco1)C(=O)N1CCCCC1)c1ccc(Br)o1 | 2.36%
CCCCN(C)S(=O)(=O)c1c(C(=O)OCC)c(C)n(C)c1C | 7.7%
Cc1csc(NC(=O)CN(C)S(=O)(=O)c2cccc3cccnc23)n1 | -4.21%
CN(C)c1ccc(CN2CCC3(C=Cc4ccccc43)CC2)cc1 | 7.87%
CC(=O)c1ccc(NC2=NC(C)(C)Cc3cc(C)c(C)cc32)cc1 | -8.38%
O=C(Nc1cccnc1)c1cc2c(O)nc3ccccc3c2s1 | -0.499%
CC1CCCC(NC(=O)CN2N=C(c3ccccc3)CCC2=O)C1C (stereo not shown) | -2.99%
CCOc1cc(CN)c(-n2cccc2)cc1OCC | -0.703%
Nc1nc(SCC(=O)NCCCO)nc2sc3c(c12)CCCC3 | 1.64%
Cc1ccc(C(=O)C2=C(O)C(=O)N(CC3CCCO3)C2c2cccc(Cl)c2)o1 (stereo not shown) | -9.98%
Oc1c2c(nc3ccccc13)OCCC2 | -1.98%
O=C(NCc1ccccc1)c1ccccc1NS(=O)(=O)c1ccc(Br)s1 | -5.49%
Cc1ccsc1C(C#N)NC(=O)[C@@H](NC(=O)OCc1ccccc1)C1CCCCC1 (stereo partly shown) | -1.61%

Compound | % Inhibition @ 10 uM
COc1cc(OC)c(OC)cc1CN1CCN(c2cccc(C(F)(F)F)c2)CC1 | -1.86%
CCOCCO/C(O)=C1/C(C)=NC2=C(C(=O)CCC2)C1c1ccc(-c2ccccc2)cc1 (stereo not shown) | 4.66%
O=C(Cn1c(=O)c2ccccc2n2nncc12)NCc1ccccc1 | -1.01%
CCOC(=O)C1=C(C)OC(N)=C(C#N)C1c1ccccc1OCC (stereo not shown) | -2.15%
N#Cc1c(N)ccn(Cc2ccccc2)c1=O | -4.31%
Cc1ccc2sc(-c3ccc(NC(=O)C(C)(C)C)cc3)nc2c1 | 2.76%
N#Cc1cccc(S(=O)(=O)n2nc(-c3ccc(Cl)cc3)cc2N)c1 | 0.66%
COc1ccc(-c2cnc(OC(C)(C)C)nc2OC(C)(C)C)cc1OC | -1.04%
c1ccc(-c2cc3c(N4CCCC4)ncnc3s2)cc1 | 4.89%
Cc1ccc2nc(C)c3cc(C)oc3c2c1 | 2.05%
O=C(Cn1cnc2onc(-c3ccc(F)cc3)c2c1=O)NCc1ccc2c(c1)OCO2 | 2.75%
O=C(Nc1nn2c(-c3ccccc3)nnc2s1)C1CCCCC1 | 2.53%
Cc1nn(-c2ccc(Cl)cc2)c2c(=O)c(I)cccc12 | -0.994%
CCOc1ccccc1NC(=O)c1cnn(CC)c1 | -10.6%
COc1ccc(C2C(C#N)=C(N)OC3=C2C(=O)CCC3)cc1O (stereo not shown) | -3.62%
CC(C)C[C@H](NC(=O)OCc1ccccc1)C(=O)N[C@H]1CCN(C(=O)[C@H](CC(C)C)NC(=O)c2ccc(-c3cnc(Nc4ccncc4)s3)cc2)C1 | -3.04%
C1=C(c2ccccc2)CCN(Cc2nnc(-c3ccc4c(c3)OCO4)o2)C1 | 3.5%
CCCCCC1CCC(c2ccc(C(=O)Nc3nc4ccccc4n3C)cc2)CC1 (stereo not shown) | -0.803%
COc1ccc(C2=N/C(=C/c3cc4ccccc4nc3N3CCOCC3)C(=O)O2)cc1 | -5.15%
Clc1cccc(-c2nnc3sc(-c4ccncc4)nn23)c1 | -5.91%
CCCCc1[nH]nc2c1C(c1cc(Br)cs1)C(C#N)=C(N)O2 (stereo not shown) | 4.09%
O=C(NC1C2CC3CC(C2)CC1C3)c1cc2ccccc2o1 (stereo not shown) | -8.2%
O=C(CN1CCCC1)Nc1c2c(nc3ccccc13)CCC2 | -1.91%
CC(C(=O)Nc1nccs1)c1cccc(C(=O)c2ccccc2)c1 (stereo not shown) | -1.52%
Cc1c2cnn(CC(=O)NCc3ccccc3Cl)c(=O)c2c(C)n1Cc1ccccc1 | 2.84%

Compound | % Inhibition @ 10 uM
C=CCNC(=O)c1cc(-c2ccc(C)s2)nc2ccccc12 | 0.163%
O=C(CSc1nnnn1-c1cccc2ccccc12)NC(c1ccccc1)c1ccccc1 | 0.0719%
CCOc1ccc(C2=NN3C(C2)c2cccc(OC)c2OC32CCC(C)CC2)cc1 (stereo not shown) | 35.1%
CCN(Cc1ccccc1)C(=O)Nc1cn(C)c(=O)c2ccccc12 | 2.01%
O=C1c2ccccc2NC(c2cccc(O)c2)N1Cc1ccco1 (stereo not shown) | 2.36%
CC(=O)CCc1oc2ccc(C)cc2c1-c1ccc(C)cc1 | -3.14%
Cc1cc2nc3c(=O)n(C)c(=O)n(C)c3nc2cc1N | -0.807%
COc1cc(OC)cc(C(=O)N2CCN(Cc3ccccc3C)CC2)c1 | 0.635%
CC(CCc1ccco1)NC(=O)Cn1ncc2c(Cl)cccc21 (stereo not shown) | 0.596%
CC(C)C[C@H](NC(=O)c1cccc(OCc2ccccc2)c1)C(=O)NCC#N | 4.63%
Cc1cc(N)c2cc(Br)ccc2n1 | -4.3%
O=C1c2ccccc2NC(c2ccc3c(c2)OCO3)N1c1ccc(F)cc1 (stereo not shown) | 5.04%
COc1ccc(S(=O)(=O)N2CCN(c3ncccn3)CC2)cc1 | -2.69%
COc1cccc(C(=O)Nc2ccccc2F)c1 | 5.29%
CN(C)CC#CCC(O)(c1ccccc1)C1CCCCC1 (stereo not shown) | -4.43%
CC(C)C[C@H](NC(=O)c1ccc(-c2csc(-c3cccnc3)n2)cc1)C(=O)N[C@@H]1CCN(Cc2ccccc2)C1 | 5.05%
COc1cccc(C2=CC(c3ccc(OC)c(OC)c3OC)n3nnnc3N2)c1 (stereo not shown) | -0.125%
CC(C)c1ccc(-n2cccc2)cc1 | -2.17%
Cc1cccc(-n2ncc3c(N4CCC(C)CC4)ncnc32)c1 | 6.44%
COc1cc(/C=C2/C(=N)N3OC(C)=CC3=NC2=O)cc(OC)c1OCCOc1ccccc1Cl | -1.43%
CC(C)N(C(=O)/C=C/c1cccc([N+](=O)[O-])c1)C(C)C | 7.66%
O=C(Nc1ccc(Cl)c(Cl)c1)c1ccccc1NC(=O)C1CC=CCC1C(=O)O (stereo not shown) | -0.95%
Cc1csc2nc(CNC(=O)C3CCCCC3)cn12 | -6.09%
COc1cccc(CN2CCN(C(=O)c3ccc(-c4ccccc4)cc3)CC2)c1 | 0.131%
CN1C2=C(C(=O)CC(C)(C)C2)C(c2cc(Br)ccc2O)C2=C1CC(C)(C)CC2=O | -2.85%
